Over roughly 33,000 sequences, “E-score (-0.5 to 0.5)” has its median near -0.032; the highest 2% begin near 0.36. The list shows a part of the results.
What follows are sequences tested against T1, Sko1 (UniProt Q02100) (assay: PBM E-score (8-mer binding enrichment) (E-score (-0.5 to 0.5)); higher = stronger / more preferred TF binding; most listed sequences are background and not binding sites). Conditions: protein concentration: 200 nM; construct: GST-full length.
T1 sequence: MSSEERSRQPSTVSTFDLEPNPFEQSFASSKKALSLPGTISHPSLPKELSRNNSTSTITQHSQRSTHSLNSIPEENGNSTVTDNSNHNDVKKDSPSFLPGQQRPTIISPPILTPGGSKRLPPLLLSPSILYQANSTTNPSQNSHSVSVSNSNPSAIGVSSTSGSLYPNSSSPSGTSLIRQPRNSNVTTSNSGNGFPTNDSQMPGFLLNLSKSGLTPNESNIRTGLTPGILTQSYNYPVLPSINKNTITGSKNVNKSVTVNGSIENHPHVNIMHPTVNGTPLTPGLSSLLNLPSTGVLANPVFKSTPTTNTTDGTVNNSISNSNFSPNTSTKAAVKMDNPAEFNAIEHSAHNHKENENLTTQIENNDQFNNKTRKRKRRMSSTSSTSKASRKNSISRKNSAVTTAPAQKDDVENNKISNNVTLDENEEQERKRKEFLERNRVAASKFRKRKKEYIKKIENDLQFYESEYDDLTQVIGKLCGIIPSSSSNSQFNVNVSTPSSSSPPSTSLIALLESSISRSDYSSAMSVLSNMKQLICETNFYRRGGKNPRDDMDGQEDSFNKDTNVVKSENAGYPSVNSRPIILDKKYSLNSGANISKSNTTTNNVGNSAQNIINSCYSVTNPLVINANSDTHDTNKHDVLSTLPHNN
Method in brief: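 Detection of bound protein used fluorescent anti-GST, with scans normalised by masliner. The proteins were GST-tagged yeast transcription factors applied at about 100-200 nM to universal all-10-mer Agilent arrays made double-stranded by primer extension. Each ungapped eight-base word, pooled with its reverse complement, was scored with an E-score from the Universal PBM Analysis Suite.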
For AGGCGACT, the “PBM E-score” value was -0.162. In the case of CCTAAGGA, the “PBM E-score” value was -0.133. For CCCTATGC, the “PBM E-score” value was -0.169. With ACTTCGGA the “PBM E-score” value was 0.0126. In the case of AGAAAGCG, the “PBM E-score” value was -0.042. ACTCCCCA was tested, and the “PBM E-score” value was -0.0377. CCGCCCCA was tested, and the “PBM E-score” value was 0.0155. With AGTGTCTA the “PBM E-score” value was -0.0811. In the case of CGTAATCA, the “PBM E-score” value was 0.452. ATGGGTAA was tested, and the “PBM E-score” value was 0.0297. In the case of GTGGCAAC, the “PBM E-score” value was -0.0174. For CTTACTCC, the “PBM E-score” value was -0.116. CTATAGTC was tested, and the “PBM E-score” value was 0.0578. In the case of CAACACCG, the “PBM E-score” value was -0.177. With ACTTACAA the “PBM E-score” value was 0.115. For AAGAGTAA, the “PBM E-score” value was 0.216. With ATTCCTCG the “PBM E-score” value was -0.0156. With AACCGTAT the “PBM E-score” value was -0.12. For CAAACGGC, the “PBM E-score” value was -0.358. In the case of AAGCTGAC, the “PBM E-score” value was 0.00467. With CCGGCATC the “PBM E-score” value was -0.267. In the case of ATTGAAGG, the “PBM E-score” value was -0.262. For CCTGTGAC, the “PBM E-score” value was 0.156. AGCGTAGC was tested, and the “PBM E-score” value was -0.0151. GAGATTGC was tested, and the “PBM E-score” value was -0.147. CCTTCGTC was tested, and the “PBM E-score” value was 0.014. With CTCCGCCC the “PBM E-score” value was -0.254. With GCAGAGTA the “PBM E-score” value was -0.0527. In the case of AATAGCGG, the “PBM E-score” value was -0.18. With GAGTATTA the “PBM E-score” value was 0.0915. ACCGCAGT was tested, and the “PBM E-score” value was -0.112. With GAGCCCGA the “PBM E-score” value was -0.111. ACCGACCC was tested, and the “PBM E-score” value was -0.163. With AAAAGGAC the “PBM E-score” value was -0.0664. With AACCACTG the “PBM E-score” value was 0.0541. TCGGAGCA was tested, and the “PBM E-score” value was -0.247. In the case of CCGAACCA, the “PBM E-score” value was -0.365. AAATGCCG was tested, and the “PBM E-score” value was 0.0751. With CCCTCTAC the “PBM E-score” value was -0.215. AATGATTC was tested, and the “PBM E-score” value was 0.185. For AGCCCGCA, the “PBM E-score” value was -0.28. ACCTGAGA was tested, and the “PBM E-score” value was 0.0476. In the case of GGACCCAC, the “PBM E-score” value was -0.106. In the case of CACGAGCG, the “PBM E-score” value was -0.138. For GGCACAAA, the “PBM E-score” value was 0.0264. In the case of GACAAAGA, the “PBM E-score” value was 0.157. With CAGTGTAA the “PBM E-score” value was 0.0225. CACTCCTC was tested, and the “PBM E-score” value was -0.168. With AGCTCCGG the “PBM E-score” value was -0.294. CTACGACC was tested, and the “PBM E-score” value was -0.132. AGGAGCTC was tested, and the “PBM E-score” value was -0.125. In the case of AACCATTA, the “PBM E-score” value was 0.213. CCGGTCTA was tested, and the “PBM E-score” value was -0.185. With GAGGATGA the “PBM E-score” value was 0.157. AGACCATC was tested, and the “PBM E-score” value was -0.0601. With CAGGTCTA the “PBM E-score” value was -0.0639. In the case of ACGGAAGA, the “PBM E-score” value was 0.0505. In the case of ATATTATA, the “PBM E-score” value was 0.185. With ATACACCG the “PBM E-score” value was -0.136. With AAGCGGCC the “PBM E-score” value was -0.407. For CGGCCTGA, the “PBM E-score” value was -0.242. For CCGTACCG, the “PBM E-score” value was -0.208. For ATTTAGAA, the “PBM E-score” value was 0.0981. With CTGGTCAA the “PBM E-score” value was -0.228. CTAGACCA was tested, and the “PBM E-score” value was -0.037. In the case of AAGTCTCA, the “PBM E-score” value was -0.217. AACGCATC was tested, and the “PBM E-score” value was 0.121. AAAGATAG was tested, and the “PBM E-score” value was -0.0272. In the case of CTAATGAA, the “PBM E-score” value was 0.122. AGTTAAGC was tested, and the “PBM E-score” value was 0.12. In the case of ACTAACAC, the “PBM E-score” value was 0.0291. In the case of CGCGAAAA, the “PBM E-score” value was 0.067. For CCTAATCG, the “PBM E-score” value was 0.0533. In the case of CTTTTGAA, the “PBM E-score” value was 0.0978. CTTGGAGA was tested, and the “PBM E-score” value was -0.198. ATAATACG was tested, and the “PBM E-score” value was 0.376. CAGGCCCG was tested, and the “PBM E-score” value was -0.331. ACATACTG was tested, and the “PBM E-score” value was 0.0915. CACTCACG was tested, and the “PBM E-score” value was 0.161. With AACGGAAA the “PBM E-score” value was 0.0735. In the case of CGGTGCTC, the “PBM E-score” value was -0.0908. In the case of AGTCTCGA, the “PBM E-score” value was -0.0855. In the case of CTTCTCCC, the “PBM E-score” value was -0.155. With GTCCAGCA the “PBM E-score” value was -0.223. CTGATACC was tested, and the “PBM E-score” value was -0.165. In the case of CGGCGCTC, the “PBM E-score” value was -0.204. With TCGCGTAA the “PBM E-score” value was 0.393. In the case of AGAAATCG, the “PBM E-score” value was -0.178. For GACTCATA, the “PBM E-score” value was 0.129. With AGTCCCCG the “PBM E-score” value was -0.265. For AGTGAGAT, the “PBM E-score” value was 0.0689. For AATTGATC, the “PBM E-score” value was -0.18. For CATAAGGG, the “PBM E-score” value was -0.00264. In the case of GAAACACC, the “PBM E-score” value was 0.02. With CCGCTGGC the “PBM E-score” value was -0.113. With GCCCACTA the “PBM E-score” value was -0.0836. In the case of AGCCTATA, the “PBM E-score” value was 0.0406. AGGGTCGG was tested, and the “PBM E-score” value was -0.333. For CGGGTATA, the “PBM E-score” value was 0.00491. In the case of AGAGCACT, the “PBM E-score” value was -0.00499. CCCTTGCG was tested, and the “PBM E-score” value was -0.0753. In the case of ATGCGTAA, the “PBM E-score” value was 0.437. For TATACCCA, the “PBM E-score” value was -0.289. In the case of CGCAAGTC, the “PBM E-score” value was -0.141. AGTGTATC was tested, and the “PBM E-score” value was -0.0181. For AGAGGCGG, the “PBM E-score” value was -0.28. ATGACCGA was tested, and the “PBM E-score” value was -0.0278. In the case of CTACCCGA, the “PBM E-score” value was -0.103. AAAAGTTC was tested, and the “PBM E-score” value was 0.0682. With ATTTTCTA the “PBM E-score” value was 0.144. In the case of GGTACCAA, the “PBM E-score” value was -0.108. In the case of AAACTCTG, the “PBM E-score” value was 0.0632. For CGGGCACC, the “PBM E-score” value was -0.184. With CGTACTAG the “PBM E-score” value was 0.273. In the case of GGACCTTA, the “PBM E-score” value was -0.182. With CCCTAGGC the “PBM E-score” value was -0.269. TAGTGAAA was tested, and the “PBM E-score” value was 0.0372. CACTGTCC was tested, and the “PBM E-score” value was 0.0415. For CCCAGCCG, the “PBM E-score” value was -0.243. With GTACTTTA the “PBM E-score” value was 0.122. With CTGCAACC the “PBM E-score” value was -0.118. In the case of AACTGATA, the “PBM E-score” value was 0.0396. For CATTTGAA, the “PBM E-score” value was 0.11. CTCTCCGC was tested, and the “PBM E-score” value was -0.117. In the case of CGTGCTGC, the “PBM E-score” value was 0.0131. For AATAGATG, the “PBM E-score” value was 0.266. GTTAGTTA was tested, and the “PBM E-score” value was 0.264. GCCGAGCC was tested, and the “PBM E-score” value was -0.375. ACACTCGA was tested, and the “PBM E-score” value was 0.0224. In the case of AGGTAGAA, the “PBM E-score” value was 0.00627. In the case of AAAAGGGC, the “PBM E-score” value was -0.273. For CGAGTTGA, the “PBM E-score” value was -0.0149. GCACGGAA was tested, and the “PBM E-score” value was -0.0734. In the case of GCGCATCA, the “PBM E-score” value was 0.111. With GGGACTAA the “PBM E-score” value was -0.297. In the case of AAAGGTGC, the “PBM E-score” value was -0.179. For AGCTGCTC, the “PBM E-score” value was -0.207. In the case of CAGCTTAC, the “PBM E-score” value was 0.019. With AAGTCCAA the “PBM E-score” value was 0.0276. In the case of ATCGTACC, the “PBM E-score” value was -0.0621. With GGTAGGCA the “PBM E-score” value was -0.189. CACGCAAA was tested, and the “PBM E-score” value was 0.26. With AATTTCCA the “PBM E-score” value was 0.14. In the case of TACAGGGA, the “PBM E-score” value was -0.171. In the case of AAGCGACC, the “PBM E-score” value was -0.12. CGTCGGAC was tested, and the “PBM E-score” value was -0.0512. GGGGGCTA was tested, and the “PBM E-score” value was -0.299. For AGAACTGG, the “PBM E-score” value was -0.124. AACGACCA was tested, and the “PBM E-score” value was 0.093. For AATGGCAT, the “PBM E-score” value was 0.308. In the case of AATACTGA, the “PBM E-score” value was 0.143. GGAGGACA was tested, and the “PBM E-score” value was -0.107. In the case of ATGCTTCA, the “PBM E-score” value was -0.0353. GGACCAGA was tested, and the “PBM E-score” value was -0.111. TAAGACCA was tested, and the “PBM E-score” value was 0.0281. In the case of ACATACGG, the “PBM E-score” value was 0.0483. For GGTCTAAA, the “PBM E-score” value was -0.00433. In the case of CTCCACCA, the “PBM E-score” value was -0.326. With GAAACAAC the “PBM E-score” value was -0.0259. For ACTTTCTA, the “PBM E-score” value was 0.0803. In the case of CGAGCTGC, the “PBM E-score” value was -0.24. With AATGAGCG the “PBM E-score” value was 0.0936. In the case of CGATATCC, the “PBM E-score” value was 0.0777. In the case of CGTATAAC, the “PBM E-score” value was 0.355. With ACGGCGTC the “PBM E-score” value was -0.0291. With AATTGGTG the “PBM E-score” value was -0.00841. With GCGTCCAC the “PBM E-score” value was -0.0966. For GCTTAAAA, the “PBM E-score” value was 0.0242. With CATTTCCA the “PBM E-score” value was 0.0795. With ATACTGCC the “PBM E-score” value was -0.108. With CCACCTTA the “PBM E-score” value was -0.0986. With CAGTGTCC the “PBM E-score” value was -0.0405.

— the supplement of paper PMC3334620
